The campaign covered roughly 200,000 compounds. About 4,500 (2.2%) were called active. This list was built around the results that the source calls inconclusive (neither active nor inactive); the mix of calls is not that of the screen. The call rests on the fitted dose curve; in most records, active means well fitted inhibition curve with a large enough effect; inconclusive means small, poorly fitted or top-dose-only effect, or effect the other way; inactive means flat fitted curve, though single readings scatter. A potency beside an inconclusive call is a rough fit, not a confirmed value.
biological target: Cruzipain (Trypanosoma cruzi) (UniProt P25779); assay: qHTS Assay for Promiscuous and Specific Inhibitors of Cruzain (without detergent); settings: purified cruzain, Z-FR-AMC fluorescence, no detergent; further: nearly all actives have a fitted effect of over 40% in size;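 on max response, negative = inhibition: plate controls were enzyme without inhibitor for no effect and buffer without enzyme for full effect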
In short: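 Detergent-free condition (0.00005% Triton X-100) in acetate buffer pH 5.5 with DTT. 1.5 nM enzyme and compound were pre-mixed 15 min, then 2 uM Z-FR-AMC substrate added; reaction progress from fluorescence change between first and third reads (60 s).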
Potency means the concentration at half of the fitted maximal effect; tags describe the fitted curve by direction and shape.

UniProt P25779, sequence (P25779 whole entry, looked up): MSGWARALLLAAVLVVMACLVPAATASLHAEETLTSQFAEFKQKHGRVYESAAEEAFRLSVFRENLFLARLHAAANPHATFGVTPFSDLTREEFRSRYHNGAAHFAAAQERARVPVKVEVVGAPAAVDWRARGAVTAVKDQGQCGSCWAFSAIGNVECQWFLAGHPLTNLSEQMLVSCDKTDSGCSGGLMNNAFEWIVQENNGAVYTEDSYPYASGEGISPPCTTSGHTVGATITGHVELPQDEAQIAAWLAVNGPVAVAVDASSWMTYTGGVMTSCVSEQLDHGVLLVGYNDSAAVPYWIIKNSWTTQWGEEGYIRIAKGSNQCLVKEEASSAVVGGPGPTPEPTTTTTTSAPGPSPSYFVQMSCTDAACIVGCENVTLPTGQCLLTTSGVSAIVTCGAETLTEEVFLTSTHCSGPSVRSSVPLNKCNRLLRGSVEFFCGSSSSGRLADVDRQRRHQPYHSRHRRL

Row | Structure (SMILES) | Potency | max response, negative = inhibition
1 | O=C(Nc1cccc(F)c1)c1ccc(-c2ccccc2)s1 | inconclusive: 39.8 µM [inhibitor, single point] | 
2 | COc1ccc(C(=O)N/N=C/c2ccc(OC)c(CSc3ccccn3)c2)cc1 | inconclusive: 31.6 µM [inhibitor, single point] | 
3 | Cn1c(SCC(=O)Nc2nc3ccccc3s2)nnc1-c1ccccc1 | inconclusive: 31.6 µM [inhibitor, single point] | 
4 | COC(=O)C1CCN(S(=O)(=O)c2cc3c4c(c2)CC(=O)N4CCC3)CC1 | inconclusive: 25.1 µM [activator, single point] | 
5 | CCOCCCn1c(=N)c(C(=O)NCC2CCCO2)cc2c(=O)n3cccc(C)c3nc21 (centres undefined) | inconclusive: 39.8 µM [inhibitor, single point] | 
6 | Cc1ccc(C)c(N2CCN(Cc3csc(C)c3)CC2)c1 |  | inactive: -3.94%
7 | C#CCOCCOCCOCCNc1nc(N2CCN(C(=O)Cn3cc(CCCN=C(N)N)nn3)CC2)nc(N2CCN(C(=O)[C@H]([C@@H](C)CC)n3cc(CCCN=C(N)N)nn3)CC2)n1 | active: 20 µM | 
8 | Cc1ccc(O)c(C(=O)c2cnn(C(=O)COc3ccc(Cl)cc3)c2)c1 | inconclusive: 31.6 µM [inhibitor, single point] | 
9 | CCCCNc1c2c(nc3c(-c4ccccc4)c(C)nn13)CCC2 | active: 7.94 µM | 
10 | O=C(N/N=C/c1cccs1)C1CC(=O)N(c2ccccc2)C1 (centres undefined) | inconclusive: 39.8 µM [inhibitor, single point] | 
11 | Cc1cc(C)n2nc(C(=O)OCCOc3cccc(Br)c3)nc2n1 | inconclusive: 39.8 µM [activator, single point] | 
12 | O=C(O)c1ccc2c(c1C(=O)O)C(=O)OC2(c1ccc(O)cc1)c1ccc(O)cc1 |  | inactive: -2.54%
13 | O=C(COC(=O)COc1ccc(Cl)cc1)NCc1cccs1 |  | inactive: 2.51%
14 | CCOC(=O)c1c(C)oc2nc(C)nc(NCc3ccccc3OC)c12 | inconclusive: 39.8 µM [activator, single point] | 
15 | O=C(COC(=O)c1ccccc1Nc1ccccc1)Nc1ccccc1 | inconclusive: 39.8 µM [inhibitor, single point] | 
16 | CCOc1ccc(/C=C/c2nc(C#N)c(NCCc3ccccc3)o2)cc1 |  | inactive: -12%
17 | Cc1nc2c(ccc3nc(NC(=O)Cc4cccc5ccccc45)sc32)s1 | inconclusive: 39.8 µM [inhibitor, single point] | 
18 | COc1ccccc1NC(=O)Cn1nnc(-c2ccccc2NC(=O)c2ccco2)n1 | inconclusive: 31.6 µM [inhibitor, single point] | 
19 | C=CCSc1nc2sc3c(c2c(=O)n1CC)CCc1ccccc1-3 | inconclusive: 31.6 µM [inhibitor, single point] | 
20 | O=C(Nc1ncc(S(=O)(=O)c2ccc([N+](=O)[O-])cc2)s1)c1ccc2ccccc2c1 | active: 20 µM | 
21 | Clc1cccc(-c2nn3c(Cn4cnc5ccccc54)nnc3s2)c1 | inconclusive: 25.1 µM [inhibitor, single point] | 
22 | COCCn1c(=O)c(C)nc2cnc(N3CCNCC3)nc21 |  | inactive: 1.73%

Row | Structure (SMILES) | Potency | max response, negative = inhibition
23 | N#C/C(=C/c1ccc(N2CCOCC2)o1)c1ccc(Cl)cc1 | inconclusive: 31.6 µM [activator, single point] | 
24 | CC1=C(c2ccc(C)c(C)c2)S(=O)(=O)N=C1N1CCC(C(=O)NC(C)Cc2ccco2)CC1 (centres undefined) | inconclusive: 39.8 µM [activator, single point] | 
25 | Cc1nnc(SCC(=O)c2ccc(S(=O)(=O)N3CCOCC3)cc2)n1-c1ccccc1 | inconclusive: 39.8 µM [activator, single point] | 
26 | Nc1ncnc2c1ncn2[C@@H]1O[C@H](COP(=O)(O)O)[C@@H](O)[C@@H]1O |  | inactive: 2.07%
27 | C=CC(C)(O)CC1[C@@]2(C)CCCC(C)(C)C2CC[C@]1(C)O (some centres undefined) | inconclusive: 39.8 µM [activator, single point] | 
28 | Cc1cc(C)cc(-n2c(SCC(=O)Nc3ccc4c(c3)OCCO4)nc3c([nH]c4ccccc43)c2=O)c1 | inconclusive: 3.16 µM [inhibitor, single point] | 
29 | Cc1nnc2sc(-c3ccc(-c4ccc(Cl)c(C(F)(F)F)c4)o3)nn12 | inconclusive: 31.6 µM [activator, partial curve] | 
30 | Cc1ccc(C(=O)NCc2ccc(F)cc2)cc1NC(=O)c1nsc2ccccc12 | inconclusive: 39.8 µM [inhibitor, single point] | 
31 | CCc1ccc(OCC(=O)NC(NC(=S)Nc2ccccc2C)C(Cl)(Cl)Cl)cc1 (centres undefined) | inconclusive: 39.8 µM [inhibitor, single point] | 
32 | Cn1c(=O)oc2cc(S(=O)(=O)NCCC(=O)NC3CCCC3)ccc21 |  | inactive: -10.8%
33 | Cc1ccc(-c2ccc(/C=N/NC(=S)Nc3ccccc3)o2)cc1[N+](=O)[O-] | inconclusive: 39.8 µM [inhibitor, single point] | 
34 | COc1ccc(OC)c(C2NC(=O)NC(C)=C2C(=O)Nc2ccc(F)cc2)c1 (centres undefined) |  | inactive: -7.43%
35 | COC(=O)c1c(C)nn(-c2ccc(F)cc2)c1-n1cccc1 |  | inactive: -0.332%
36 | COc1ccc(C)cc1NC(=O)C(Sc1nnc(Nc2ccccc2F)s1)c1ccccc1 (centres undefined) | inconclusive: 39.8 µM [inhibitor, single point] | 
37 | CCc1cccc(Nc2ncnc3onc(-c4ccc(F)cc4)c23)c1 |  | inactive: 2.06%
38 | Cc1ccc(C(c2sc3nc(-c4ccco4)nn3c2O)N2CCC3(CC2)OCCO3)cc1 (centres undefined) | inconclusive: 31.6 µM [activator, single point] | 
39 | COC(=O)c1ccccc1CON1C(=O)C(C)(C)N(OCc2ccccc2C(=O)OC)C(=O)C1(C)C | inconclusive: 31.6 µM [activator, single point] | 
40 | COc1ccc(Nc2c(-c3ccccn3)nc3ccc(Cl)cn23)cc1 |  | inactive: -8.53%
41 | COc1ccc(CCNC(=O)CSc2n[nH]c(-c3ccccc3Cl)n2)cc1OC |  | inactive: 7.54%
42 | c1ccc2c3c(cc(N4CCOCC4)c2c1)OC1(N2CCOCC2)CCCCC1O3 (centres undefined) | inconclusive: 31.6 µM [activator, single point] | 
43 | COP(=O)(OC)c1nc(-c2cccc3ccccc23)oc1NCc1ccccc1 | inconclusive: 31.6 µM [activator, single point] | 
44 | Cc1ccc(C2=NNC(c3ccc(Cl)cc3)=Nc3ccccc32)o1 | active: 12.6 µM | 

Row | Structure (SMILES) | Potency | max response, negative = inhibition
45 | COc1cc(OC)c(N(C)C(=O)c2sc3nc4n(c(=O)c3c2C)CCCC4)cc1Cl | inconclusive: 39.8 µM [activator, single point] | 
46 | Cc1ccc(-c2csc3ncnc(N4CCc5ccccc5C4)c23)cc1 | inconclusive: 39.8 µM [inhibitor, single point] | 
47 | Cc1cc(C2(c3cc(C)c(NC(=O)CN4CCOCC4)c(C)c3)CCCCC2)cc(C)c1NC(=O)CN1CCOCC1 | inconclusive: 12.6 µM [activator, partial curve] | 
48 | COc1ccc(CN2COc3ccc4c(-c5ccccc5)cc(=O)oc4c3C2)cc1OC | inconclusive: 31.6 µM [inhibitor, single point] | 
49 | O=C(Cn1nc(-c2ccc(Cl)cc2)ccc1=O)N1CCN(c2ccccc2)CC1 | inconclusive: 31.6 µM [activator, single point] | 
50 | CCOC(=O)N1CCC(n2c(=S)[nH]c3cc(OC)c(OC)cc3c2=O)CC1 | inconclusive: 31.6 µM [activator, single point] | 
51 | COc1ccc(NC(=O)c2ccc(Cl)c(S(=O)(=O)N3CCc4ccccc4C3)c2)cn1 | inconclusive: 31.6 µM [inhibitor, single point] | 
52 | CCCCn1c(SCC(=O)Nc2ccc(OC)cc2)nc2ccc(N3CCOCC3)cc2c1=O | inconclusive: 39.8 µM [activator, single point] | 
53 | CCOc1cccc(C(=O)Nc2nnc(-c3ccco3)s2)c1 | inconclusive: 39.8 µM [inhibitor, single point] | 
54 | C[C@H](C(=O)c1ccncc1)c1ccccn1 | inconclusive: 0.316 µM [inhibitor, single point] | 
55 | CC(=O)Cc1nsc(NC(=O)c2ccc(COc3ccc(C)cc3)o2)n1 | inconclusive: 39.8 µM [activator, single point] | 
56 | N#Cc1cc([N+](=O)[O-])ccc1Oc1cccc(/C=N/NC(=O)c2cccc(Cl)c2)c1 | active: 25.1 µM | 
57 | Cc1ccc(NC(=O)Cn2nnc(C(=O)NCc3ccc4c(c3)OCO4)c2N)cc1Cl |  | inactive: -23.7%
58 | O=C(NC1CC(=O)N(c2ccc(F)cc2)C1)C1CC1 (centres undefined) |  | inactive: 15.1%
59 | Cc1cc(NCc2ccccc2Cl)n2nnnc2n1 | inconclusive: 39.8 µM [inhibitor, single point] | 
60 | CCc1ccc(NC(=O)Cn2cc(S(=O)(=O)N3CCCC3)c(S(=O)(=O)N3CCCC3)c2)cc1 |  | inactive: 7.37%
61 | CC(C)c1ccc(NC(=O)CSc2nc(-c3ccccc3F)nc3nc[nH]c23)cc1 | inconclusive: 31.6 µM [inhibitor, single point] | 
62 | CSCC[C@H](NC(=O)c1ccc(Cl)c([N+](=O)[O-])c1)c1nc2ccccc2[nH]1 |  | inactive: -8.52%
63 | COC(=O)C1=C(C(=O)OC)SC2(S1)C(C(=O)OC)=C(C(=O)OC)SC1=C2c2cc(C)cc(C)c2NC1(C)C | inconclusive: 39.8 µM [activator, single point] | 
64 | CCOC(=O)CSc1nnc(NC(=O)c2cccc(S(=O)(=O)N3CCCC3)c2)s1 | inconclusive: 39.8 µM [inhibitor, single point] | 

— PubChem BioAssay AID1476 (National Center for Advancing Translational Sciences (NCATS), 2009)
